Reference: article PMC11335210
No constants are given. Whether binding was seen depends on the method and setting. In cells and extracts the contact can be indirect. Some entries that bind do so weakly or less than the wild type.

Amino acid sequences for entries named in this document (tags omitted).
UniProt Q9QUI0: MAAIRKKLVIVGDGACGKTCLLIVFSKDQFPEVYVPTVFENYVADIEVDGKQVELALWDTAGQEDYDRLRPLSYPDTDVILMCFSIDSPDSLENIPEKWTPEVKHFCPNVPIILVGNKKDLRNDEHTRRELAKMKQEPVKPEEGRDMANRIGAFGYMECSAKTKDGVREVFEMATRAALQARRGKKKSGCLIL

Molecular target: T1, ARHGEF2 (also called GEFH1) (mouse (endogenous in mouse keratinocytes)) (UniProt Q60875)
T1 sequence: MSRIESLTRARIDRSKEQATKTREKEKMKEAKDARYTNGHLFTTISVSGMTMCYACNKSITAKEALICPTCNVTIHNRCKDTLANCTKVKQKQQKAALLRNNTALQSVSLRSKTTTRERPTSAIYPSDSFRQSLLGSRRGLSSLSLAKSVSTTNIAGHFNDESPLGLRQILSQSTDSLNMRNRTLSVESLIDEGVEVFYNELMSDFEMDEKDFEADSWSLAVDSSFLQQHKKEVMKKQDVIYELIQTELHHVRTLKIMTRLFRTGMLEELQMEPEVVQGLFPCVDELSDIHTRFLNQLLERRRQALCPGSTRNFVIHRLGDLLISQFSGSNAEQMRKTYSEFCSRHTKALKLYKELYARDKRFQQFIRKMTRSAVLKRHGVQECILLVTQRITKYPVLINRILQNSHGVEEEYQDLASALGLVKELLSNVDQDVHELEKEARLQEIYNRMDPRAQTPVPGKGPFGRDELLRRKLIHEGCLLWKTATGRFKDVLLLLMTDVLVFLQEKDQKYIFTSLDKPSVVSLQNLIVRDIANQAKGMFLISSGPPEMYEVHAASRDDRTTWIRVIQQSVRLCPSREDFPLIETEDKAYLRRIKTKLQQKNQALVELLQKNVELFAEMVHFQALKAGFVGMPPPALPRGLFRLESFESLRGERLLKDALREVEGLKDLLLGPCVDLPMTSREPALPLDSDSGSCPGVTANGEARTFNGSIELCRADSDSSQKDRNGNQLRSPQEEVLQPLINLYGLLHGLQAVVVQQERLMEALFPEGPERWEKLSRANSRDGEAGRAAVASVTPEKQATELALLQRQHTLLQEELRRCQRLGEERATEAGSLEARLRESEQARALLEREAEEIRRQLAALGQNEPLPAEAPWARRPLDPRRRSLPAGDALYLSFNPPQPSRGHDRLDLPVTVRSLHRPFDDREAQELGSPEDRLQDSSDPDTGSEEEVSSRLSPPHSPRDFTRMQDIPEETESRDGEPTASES
Experiment: co-IP; anti-ARHGEF2 antibody and Protein A agarose on lysates of WT and PKP4-KO keratinocytes kept 24 h in HCM; normal rabbit IgG as control; IP buffer with 1% NP-40, 137 mM NaCl; western blot

binding: binds
Substance: RhoA (from UniProt Q9QUI0 1-193)
